Source: the supplement of paper PMC8728848
The other results are listed elsewhere or left out.

How the values were obtained:
Assay in all cases: glycan array binding signal (z-score within array); higher = stronger binding
Conditions in all cases: glycan notation: IUPAC condensed, linker removed
[1] = target: GlcNAc(b1-4)[GlcNAc(b1-6)]GalNAc
Method in brief: (§1)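 From the Consortium for Functional Glycomics database, 3228 arrays were curated, keeping only those whose protein sequence was available. Binding is given as a within-array Z-score averaged across arrays sharing a protein sequence and across linkers. Negative Z-scores can be read as non-binding.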

[2] = target: GlcNAc(b1-6)Gal(b1-4)GlcNAc
Method in brief: as §1

[3] = target: GlcNAc(b1-6)GalNAc
Method in brief: as §1

[4] = target: Kdn(a2-3)Gal(b1-3)GlcNAc
Method in brief: as §1

[5] = target: Kdn(a2-3)Gal(b1-4)GlcNAc
Method in brief: as §1

[6] = target: Man(a1-2)Man(a1-2)Man(a1-3)Man
Method in brief: as §1

[7] = target: Man(a1-2)Man(a1-2)Man(a1-3)[Man(a1-2)Man(a1-3)[Man(a1-2)Man(a1-6)]Man(a1-6)]Man(b1-4)GlcNAc(b1-4)GlcNAc
Method in brief: as §1

[8] = target: Man(a1-2)Man(a1-2)Man(a1-3)[Man(a1-2)Man(a1-6)[Man(a1-3)]Man(a1-6)]Man(b1-4)GlcNAc(b1-4)GlcNAc
Method in brief: as §1

[9] = target: Man(a1-2)Man(a1-2)Man(a1-6)[Man(a1-3)]Man
Method in brief: as §1

[10] = target: Man(a1-2)Man(a1-3)Man
Method in brief: as §1

[11] = target: Man(a1-2)Man(a1-3)[Man(a1-2)Man(a1-6)]Man
Method in brief: as §1

[12] = target: Man(a1-2)Man(a1-3)[Man(a1-3)[Man(a1-6)]Man(a1-6)]Man(b1-4)GlcNAc(b1-4)GlcNAc
Method in brief: as §1

[13] = target: Man(a1-2)Man(a1-3)[Man(a1-6)]Man(a1-6)[Man(a1-2)Man(a1-3)]Man(b1-4)GlcNAc(b1-4)GlcNAc
Method in brief: as §1

[14] = target: Man(a1-3)[Man(a1-6)]Man
Method in brief: as §1

[15] = target: Man(a1-3)[Man(a1-6)]Man(a1-6)[Man(a1-3)]Man(b1-4)GlcNAc(b1-4)GlcNAc
Method in brief: as §1

[16] = target: Man(a1-3)[Man(a1-6)]Man(b1-4)GlcNAc(b1-4)GlcNAc
Method in brief: as §1

[17] = target: Man(b1-4)GlcNAc
Method in brief: as §1

[18] = target: Neu5Ac(a2-3)Gal
Method in brief: as §1

[19] = target: Neu5Ac(a2-3)Gal(b1-3)GalNAc
Method in brief: as §1

[20] = target: Neu5Ac(a2-3)Gal(b1-3)GalNAc(b1-3)Gal(a1-4)Gal(b1-4)Glc
Method in brief: as §1

[21] = target: Neu5Ac(a2-3)Gal(b1-3)GalNAc(b1-4)[Neu5Ac(a2-3)]Gal(b1-4)Glc
Method in brief: as §1

[22] = target: Neu5Ac(a2-3)Gal(b1-3)GalNAc6S
Method in brief: as §1

[23] = target: Neu5Ac(a2-3)Gal(b1-3)GlcNAc
Method in brief: as §1

[24] = target: Neu5Ac(a2-3)Gal(b1-3)GlcNAc(b1-3)Gal(b1-4)GlcNAc
Method in brief: as §1

[25] = target: Neu5Ac(a2-3)Gal(b1-3)GlcNAc6S
Method in brief: as §1

[26] = target: Neu5Ac(a2-3)Gal(b1-3)[Fuc(a1-4)]GlcNAc
Method in brief: as §1

[27] = target: Neu5Ac(a2-3)Gal(b1-3)[Fuc(a1-4)]GlcNAc(b1-3)Gal(b1-4)[Fuc(a1-3)]GlcNAc
Method in brief: as §1

[28] = target: Neu5Ac(a2-3)Gal(b1-3)[Neu5Ac(a2-3)Gal(b1-4)]GlcNAc
Method in brief: as §1

[29] = target: Neu5Ac(a2-3)Gal(b1-3)[Neu5Ac(a2-6)]GalNAc
Method in brief: as §1

[30] = target: Neu5Ac(a2-3)Gal(b1-4)Glc
Method in brief: as §1

[31] = target: Neu5Ac(a2-3)Gal(b1-4)GlcNAc
Method in brief: as §1

[32] = target: Neu5Ac(a2-3)Gal(b1-4)GlcNAc(b1-3)Gal(b1-4)GlcNAc
Method in brief: as §1

[33] = target: Neu5Ac(a2-3)Gal(b1-4)GlcNAc(b1-3)Gal(b1-4)GlcNAc(b1-3)Gal(b1-4)GlcNAc
Method in brief: as §1

[34] = target: Neu5Ac(a2-3)Gal(b1-4)GlcNAc(b1-3)Gal(b1-4)[Fuc(a1-3)]GlcNAc
Method in brief: as §1

B1: TbCVNHOa (Tuber borchii), Q5MK11 (protein)
chain: GSHIGPYMSYADSSRNAVLTNGGRTLRAECRNADGNWVTSELDLDTCIGNPNGFLGWGMQNFSHSSEDIKLEEGGRKLTCRPKTVDGGFRERQGIDLNRIQNVNGRLVFQ
Q: For B1, which “glycan array binding signal (z-score)” value [1] is on record?
A: -0.286

Q: What about the “glycan array binding signal (z-score)” value [2] of the same binder?
A: -0.247

Q: What about the “glycan array binding signal (z-score)” value [3] of the same binder?
A: -0.246

Q: And the “glycan array binding signal (z-score)” value [4]?
A: -0.227

Q: What about the “glycan array binding signal (z-score)” value [5] of the same binder?
A: -0.281

Q: And the “glycan array binding signal (z-score)” value [6]?
A: 3.86

Q: And the “glycan array binding signal (z-score)” value [7]?
A: -0.196

Q: What about the “glycan array binding signal (z-score)” value [8] of the same binder?
A: -0.234

Q: What about the “glycan array binding signal (z-score)” value [9] of the same binder?
A: 0.342

Q: What about the “glycan array binding signal (z-score)” value [10] of the same binder?
A: -0.199

Q: What about the “glycan array binding signal (z-score)” value [11] of the same binder?
A: -0.221

Q: What about the “glycan array binding signal (z-score)” value [12] of the same binder?
A: -0.106

Q: And the “glycan array binding signal (z-score)” value [13]?
A: -0.287

Q: What about the “glycan array binding signal (z-score)” value [14] of the same binder?
A: -0.27

Q: What about the “glycan array binding signal (z-score)” value [15] of the same binder?
A: -0.255

Q: And the “glycan array binding signal (z-score)” value [16]?
A: 1.7

Q: And the “glycan array binding signal (z-score)” value [17]?
A: -0.29

Q: And the “glycan array binding signal (z-score)” value [18]?
A: -0.27

Q: What about the “glycan array binding signal (z-score)” value [19] of the same binder?
A: -0.289

Q: What about the “glycan array binding signal (z-score)” value [20] of the same binder?
A: 0.009

Q: And the “glycan array binding signal (z-score)” value [21]?
A: -0.288

Q: What about the “glycan array binding signal (z-score)” value [22] of the same binder?
A: -0.261

Q: And the “glycan array binding signal (z-score)” value [23]?
A: -0.268

Q: What about the “glycan array binding signal (z-score)” value [24] of the same binder?
A: -0.294

Q: And the “glycan array binding signal (z-score)” value [25]?
A: -0.18

Q: And the “glycan array binding signal (z-score)” value [26]?
A: -0.287

Q: What about the “glycan array binding signal (z-score)” value [27] of the same binder?
A: -0.055

Q: What about the “glycan array binding signal (z-score)” value [28] of the same binder?
A: -0.278

Q: What about the “glycan array binding signal (z-score)” value [29] of the same binder?
A: -0.302

Q: And the “glycan array binding signal (z-score)” value [30]?
A: 0.706

Q: And the “glycan array binding signal (z-score)” value [31]?
A: -0.283

Q: What about the “glycan array binding signal (z-score)” value [32] of the same binder?
A: -0.29

Q: And the “glycan array binding signal (z-score)” value [33]?
A: -0.275

Q: What about the “glycan array binding signal (z-score)” value [34] of the same binder?
A: 0.517
